This is an account of results in the supplement of paper PMC4604168 (melanoma cell lines).

The other results are listed elsewhere or left out. Many values rest on one well or one pass, so single values are uncertain.

Among the test systems are A101D; A2058; A375.
What all share (assay): cell count relative to DMSO control; melanoma cells; higher = more viable cells
What all share (details): library dose: standard library concentration; 72 h
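Further: cells treated in 1,536-well plates, then fixed and DAPI-stained, with nuclei counted from automated high-throughput microscope images.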

Take `OCCn1cc(-c2cnc3nnn(Cc4ccc5ncccc5c4)c3n2)cn1` + O=C(O)c1ccc(-c2c[nH]c3ncc(-c4ccccc4)cc23)cc1C1CCCC1 [GSK650394] (first compound 5 µM, partner dose 0.8 µM): the values for the cell count in the test on A101D, in the test on A2058 and in the test with A375 were 85.7%, 90.9% and 105%, respectively.

As for `CO[C@@H]1[C@H](N(C)C(=O)c2ccccc2)C[C@H]2O[C@]1(C)n1c3ccccc3c3c4c(c5c6ccccc6n2c5c31)C(=O)NC4` [Midostaurin] + NC(=O)Nc1cc(-c2cccc(F)c2)sc1C(=O)N[C@H]1CCCNC1 [AZD7762] (first compound 0.4 µM, partner dose 0.1 µM), the cell count was 46.5% in the test on A101D, 54.3% in the test on A2058 and 44.3% in the test with A375.

Consider `OCCn1cc(-c2cnc3nnn(Cc4ccc5ncccc5c4)c3n2)cn1` + NCC(=O)Nc1ccc(-n2nc(C(F)(F)F)cc2-c2ccc3c(ccc4ccccc43)c2)cc1 [OSU03012] (first compound 5 µM, partner dose 5 µM), for which the values for the cell count in the test on A101D, with A2058 and in the test on A375 were 89.3%, 104% and 50.9%, respectively.

Regarding `CO[C@@H]1[C@H](N(C)C(=O)c2ccccc2)C[C@H]2O[C@]1(C)n1c3ccccc3c3c4c(c5c6ccccc6n2c5c31)C(=O)NC4` [Midostaurin] + O=C(Nc1cccc(Cl)c1)Nc1ncc(CCNc2ncnc3ccsc23)s1 [SNS314] (first compound 0.4 µM, partner dose 0.004 µM), the cell count stood at 58.6% in the test on A101D, 15.3% in the test with A2058 and 67.9% in the test on A375.

In the case of `C[C@]1(c2nc3c(C(N)=O)cccc3[nH]2)CCCN1` [Veliparib] + O=c1cc(-c2cccc3c2Sc2ccccc2S3)oc(N2CCOCC2)c1 [KU55933] (first compound 7 µM, partner dose 5 µM), the cell count in the test with A101D amounted to 86.1%; in the test on A2058, 87.9%; with A375 it was 85.8%.

Regarding `CO[C@@H]1[C@H](N(C)C(=O)c2ccccc2)C[C@H]2O[C@]1(C)n1c3ccccc3c3c4c(c5c6ccccc6n2c5c31)C(=O)NC4` [Midostaurin] + CN(C)S(=O)(=O)c1ccc2c(c1)/C(=C/c1cc3c([nH]1)CCCC3)C(=O)N2 [SU6656] (first compound 0.4 µM, partner dose 2 µM), the cell count in the test on A101D is 60%; in the test with A2058 it was 28.4%; with A375, 76.5%.

For `NC(=O)Nc1cc(-c2cccc(F)c2)sc1C(=O)N[C@H]1CCCNC1` + C[C@@H]1CCN(C(=O)CC#N)C[C@@H]1N(C)c1ncnc2[nH]ccc12 [CP690550] (first compound 0.1 µM, partner dose 5 µM), the cell count with A101D worked out at 69.2%; in the test with A2058, 95.4%; in the test with A375, 64.8%.

As to `C=CCn1c(=O)c2cnc(Nc3ccc(N4CCN(C)CC4)cc3)nc2n1-c1cccc(C(C)(C)O)n1` + OCCn1cc(-c2cnc3nnn(Cc4ccc5ncccc5c4)c3n2)cn1 [PF04217903] (first compound 0.1 µM, partner dose 5 µM), the results for the cell count in the test on A101D, in the test on A2058 and with A375 were 70.6%, 113% and 64.9%, respectively.

Take `NC(=O)Nc1cc(-c2cccc(F)c2)sc1C(=O)N[C@H]1CCCNC1` + O=C(Nc1cccc(Cl)c1)Nc1ncc(CCNc2ncnc3ccsc23)s1 [SNS314] (first compound 0.1 µM, partner dose 0.004 µM): the results for the cell count with A101D, in the test with A2058 and with A375 were 56.2%, 81.1% and 59.1%, respectively.

`Cc1nc(Nc2ncc(C(=O)Nc3c(C)cccc3Cl)s2)cc(N2CCN(CCO)CC2)n1` [dasatanib] + O=C(CCCCCCC(=O)Nc1ccccc1)NO [vorinostat] (first compound 0.02 µM, partner dose 0.4 µM): the results for the cell count in the test with A101D, in the test on A2058 and in the test on A375 were 53.7%, 49.8% and 55.7%, respectively.

Consider `Cc1nc(Nc2ncc(C(=O)Nc3c(C)cccc3Cl)s2)cc(N2CCN(CCO)CC2)n1` [dasatanib] + CO[C@@H]1[C@H](N(C)C(=O)c2ccccc2)C[C@H]2O[C@]1(C)n1c3ccccc3c3c4c(c5c6ccccc6n2c5c31)C(=O)NC4 [Midostaurin] (first compound 0.02 µM, partner dose 0.4 µM), for which the cell count was found to be 56% with A101D, 38.4% with A2058 and 71% in the test with A375.

For the compound `OCCn1cc(-c2cnc3nnn(Cc4ccc5ncccc5c4)c3n2)cn1` + Cn1cncc1[C@@](N)(c1ccc(Cl)cc1)c1ccc2c(c1)c(-c1cccc(Cl)c1)cc(=O)n2C [tipifarnib] (first compound 5 µM, partner dose 0.05 µM), the cell count with A101D stood at 89.9%; with A2058, 80.2%; in the test with A375, 76.2%.

For the compound `Cc1nc(Nc2ncc(C(=O)Nc3c(C)cccc3Cl)s2)cc(N2CCN(CCO)CC2)n1` [dasatanib] + COc1cc(Nc2ncc(F)c(Nc3ccc4c(n3)NC(=O)C(C)(C)O4)n2)cc(OC)c1OC [Tamatinib] (first compound 0.02 µM, partner dose 2 µM), the cell count came out at 18.7% with A101D, 47% with A2058 and 62.4% in the test with A375.

For `Cc1nc(Nc2ncc(C(=O)Nc3c(C)cccc3Cl)s2)cc(N2CCN(CCO)CC2)n1` [dasatanib] + Cn1nnc2c(C(N)=O)ncn2c1=O [temozolomide] (first compound 0.02 µM, partner dose 10 µM), the cell count in the test on A101D was 69.2%; with A2058 it was 40.2%; in the test with A375, 76.6%.

Take `CO[C@@H]1[C@H](N(C)C(=O)c2ccccc2)C[C@H]2O[C@]1(C)n1c3ccccc3c3c4c(c5c6ccccc6n2c5c31)C(=O)NC4` [Midostaurin] + C[C@@H]1CCN(C(=O)CC#N)C[C@@H]1N(C)c1ncnc2[nH]ccc12 [CP690550] (first compound 0.4 µM, partner dose 5 µM): the cell count came to 61.5% in the test on A101D, 41.6% with A2058 and 59.7% in the test on A375.

For the compound `CN(C)S(=O)(=O)c1ccc2c(c1)/C(=C/c1cc3c([nH]1)CCCC3)C(=O)N2` + COc1cc2c(Oc3ccc4[nH]c(C)cc4c3F)ncnc2cc1OCCCN1CCCC1 [cediranib] (first compound 2 µM, partner dose 2 µM), the cell count worked out at 80.4% in the test with A101D, 86.5% with A2058 and 136% in the test on A375.

For the compound `C[C@]1(c2nc3c(C(N)=O)cccc3[nH]2)CCCN1` [Veliparib] + Cc1cc(N2CCOCC2)cc2[nH]c(-c3c(NC[C@@H](O)c4cccc(Cl)c4)cc[nH]c3=O)nc12 [BMS536924] (first compound 7 µM, partner dose 1 µM), the cell count in the test with A101D worked out at 81.7%; with A2058, 71%; with A375, 89.3%.

Regarding `OCCn1cc(-c2cnc3nnn(Cc4ccc5ncccc5c4)c3n2)cn1` + CN(C)S(=O)(=O)c1ccc2c(c1)/C(=C/c1cc3c([nH]1)CCCC3)C(=O)N2 [SU6656] (first compound 5 µM, partner dose 2 µM), the cell count with A101D was 63.1%; in the test with A2058, 77.1%; in the test on A375, 109%.

For `C[C@]1(c2nc3c(C(N)=O)cccc3[nH]2)CCCN1` [Veliparib] + NC(=O)Nc1cc(-c2cccc(F)c2)sc1C(=O)N[C@H]1CCCNC1 [AZD7762] (first compound 7 µM, partner dose 0.1 µM), the cell count in the test with A101D was 56.8%; in the test on A2058, 39%; in the test on A375, 59.4%.

As for `NCC(=O)Nc1ccc(-n2nc(C(F)(F)F)cc2-c2ccc3c(ccc4ccccc43)c2)cc1` + COc1cc2c(Oc3ccc4[nH]c(C)cc4c3F)ncnc2cc1OCCCN1CCCC1 [cediranib] (first compound 5 µM, partner dose 2 µM), the cell count in the test with A101D turned out to be 28.3%; with A2058 it was 96%; in the test with A375, 49.6%.

With `NC(=O)Nc1cc(-c2cccc(F)c2)sc1C(=O)N[C@H]1CCCNC1` + O=C(O)c1ccc(-c2c[nH]c3ncc(-c4ccccc4)cc23)cc1C1CCCC1 [GSK650394] (first compound 0.1 µM, partner dose 0.8 µM), the figures for the cell count with A101D, in the test with A2058 and in the test with A375 were 65.7%, 118% and 59.5%, respectively.

Consider `NC(=O)Nc1cc(-c2cccc(F)c2)sc1C(=O)N[C@H]1CCCNC1` + Cn1cncc1[C@@](N)(c1ccc(Cl)cc1)c1ccc2c(c1)c(-c1cccc(Cl)c1)cc(=O)n2C [tipifarnib] (first compound 0.1 µM, partner dose 0.05 µM), for which the cell count came to 68.3% with A101D, 57.6% with A2058 and 52.1% in the test on A375.

As to `CO[C@@H]1[C@H](N(C)C(=O)c2ccccc2)C[C@H]2O[C@]1(C)n1c3ccccc3c3c4c(c5c6ccccc6n2c5c31)C(=O)NC4` [Midostaurin] + O=C(O)c1ccc(-c2c[nH]c3ncc(-c4ccccc4)cc23)cc1C1CCCC1 [GSK650394] (first compound 0.4 µM, partner dose 0.8 µM), the cell count with A101D is 56.1%; in the test on A2058, 71.2%; in the test with A375 it was 73.6%.

As to `NC(=O)Nc1cc(-c2cccc(F)c2)sc1C(=O)N[C@H]1CCCNC1` + Cc1cc(N2CCOCC2)cc2[nH]c(-c3c(NC[C@@H](O)c4cccc(Cl)c4)cc[nH]c3=O)nc12 [BMS536924] (first compound 0.1 µM, partner dose 1 µM), the figures for the cell count in the test with A101D, in the test on A2058 and in the test on A375 were 60.1%, 71.2% and 52.7%, respectively.

On to `Cc1nc(Nc2ncc(C(=O)Nc3c(C)cccc3Cl)s2)cc(N2CCN(CCO)CC2)n1` [dasatanib] + OCCn1cc(-c2cnc3nnn(Cc4ccc5ncccc5c4)c3n2)cn1 [PF04217903] (first compound 0.02 µM, partner dose 5 µM), for which the cell count in the test on A101D came to 74.1%; in the test on A2058, 70.7%; with A375, 73.8%.

Consider `C=CCn1c(=O)c2cnc(Nc3ccc(N4CCN(C)CC4)cc3)nc2n1-c1cccc(C(C)(C)O)n1` + NC(=O)Nc1cc(-c2cccc(F)c2)sc1C(=O)N[C@H]1CCCNC1 [AZD7762] (first compound 0.1 µM, partner dose 0.1 µM), for which the cell count with A101D was determined as 49.2%; with A2058, 20.4%; in the test on A375, 46.5%.

On to `CO[C@@H]1[C@H](N(C)C(=O)c2ccccc2)C[C@H]2O[C@]1(C)n1c3ccccc3c3c4c(c5c6ccccc6n2c5c31)C(=O)NC4` [Midostaurin] + NCC(=O)Nc1ccc(-n2nc(C(F)(F)F)cc2-c2ccc3c(ccc4ccccc43)c2)cc1 [OSU03012] (first compound 0.4 µM, partner dose 5 µM), for which the cell count in the test with A101D was 58.9%; in the test on A2058 it was 50.5%; in the test on A375, 44.2%.

Take `C[C@]1(c2nc3c(C(N)=O)cccc3[nH]2)CCCN1` [Veliparib] + CO[C@@H]1[C@H](N(C)C(=O)c2ccccc2)C[C@H]2O[C@]1(C)n1c3ccccc3c3c4c(c5c6ccccc6n2c5c31)C(=O)NC4 [Midostaurin] (first compound 7 µM, partner dose 0.4 µM): the cell count in the test on A101D amounted to 53%; with A2058, 44.7%; in the test on A375, 84.1%.
